The supplement of paper PMC4604168 (melanoma cell lines)
This is one part of the list. Single values are uncertain, as repeats are few or missing.

Key:
Experiment in all cases: cell count relative to DMSO control; melanoma cells; higher = more viable cells
Details in all cases: library dose: standard library concentration; 72 h
[1] = test system: SkMel28
[2] = test system: SkMel2
[3] = test system: SkMel30
[4] = test system: SkMel5
[5] = test system: UACC257
[6] = test system: UACC62
[7] = test system: WM115
[8] = test system: WM1716
[9] = test system: WM1745
[10] = test system: WM3526
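Further: cells treated in 1,536-well plates, then fixed and DAPI-stained, with nuclei counted from automated high-throughput microscope images.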

SMILES	cell count [1] [%]	cell count [2] [%]	cell count [3] [%]	cell count [4] [%]	cell count [5] [%]	cell count [6] [%]	cell count [7] [%]	cell count [8] [%]	cell count [9] [%]	cell count [10] [%]
NC(=O)Nc1cc(-c2cccc(F)c2)sc1C(=O)N[C@H]1CCCNC1 + COc1ccc2c(c1)CCC1C2CCC2(C)C(NCCCCCCN3C(=O)C=CC3=O)CCC12 [U73122] (first compound 0.1 µM, partner dose 2 µM)	95.2	108	85.1	64.4	100	83.4	76.3	83.1	72.3	84.7
C[C@]1(c2nc3c(C(N)=O)cccc3[nH]2)CCCN1 [Veliparib] + Cn1cncc1[C@@](N)(c1ccc(Cl)cc1)c1ccc2c(c1)c(-c1cccc(Cl)c1)cc(=O)n2C [tipifarnib] (first compound 7 µM, partner dose 0.05 µM)	51.3	56.3	80.4	48.4	76.1	61.2	44.9	57.7	56.1	73.9
Cc1nc(Nc2ncc(C(=O)Nc3c(C)cccc3Cl)s2)cc(N2CCN(CCO)CC2)n1 [dasatanib] + CCc1ccc(CCOc2ccc(CC3SC(=O)NC3=O)cc2)nc1 [pioglitazone] (first compound 0.02 µM, partner dose 10 µM)	69.4	75	73.7	52	67.9	108	48.7	53.8	37.3	72.9
C[C@]1(c2nc3c(C(N)=O)cccc3[nH]2)CCCN1 [Veliparib] + Cn1nnc2c(C(N)=O)ncn2c1=O [temozolomide] (first compound 7 µM, partner dose 10 µM)	30.4	82.2	53.3	68.2	84.1	58.2	46.7	52.6	65.5	80.8
CO[C@@H]1[C@H](N(C)C(=O)c2ccccc2)C[C@H]2O[C@]1(C)n1c3ccccc3c3c4c(c5c6ccccc6n2c5c31)C(=O)NC4 [Midostaurin] + COc1cc(N2CCC(N3CCN(C)CC3)CC2)ccc1Nc1ncc(Cl)c(Nc2ccccc2S(=O)(=O)C(C)C)n1 [NVP-TAE684] (first compound 0.4 µM, partner dose 0.4 µM)	44.6	40.9	77.4	55	74.3	66.9	38.8	36.3	28.6	61.7
OCCn1cc(-c2cnc3nnn(Cc4ccc5ncccc5c4)c3n2)cn1 + Cn1cncc1[C@@](N)(c1ccc(Cl)cc1)c1ccc2c(c1)c(-c1cccc(Cl)c1)cc(=O)n2C [tipifarnib] (first compound 5 µM, partner dose 0.05 µM)	67.3	66.3	95.7	64.8	106	53.2	74.7	59.5	81.1	73
NC(=O)Nc1cc(-c2cccc(F)c2)sc1C(=O)N[C@H]1CCCNC1 + COc1cc2c(Oc3ccc4[nH]c(C)cc4c3F)ncnc2cc1OCCCN1CCCC1 [cediranib] (first compound 0.1 µM, partner dose 2 µM)	37.5	75.8	60.5	66.4	86.1	55	52.7	48.1	59.7	50.6
NC(=O)Nc1cc(-c2cccc(F)c2)sc1C(=O)N[C@H]1CCCNC1 + O=C(Nc1cccc(Cl)c1)Nc1ncc(CCNc2ncnc3ccsc23)s1 [SNS314] (first compound 0.1 µM, partner dose 0.004 µM)	28.1	–	88.4	70	69.5	74.5	46.6	77.3	69.3	67.2
C[C@]1(c2nc3c(C(N)=O)cccc3[nH]2)CCCN1 [Veliparib] + COc1cc2c(Oc3ccc4[nH]c(C)cc4c3F)ncnc2cc1OCCCN1CCCC1 [cediranib] (first compound 7 µM, partner dose 2 µM)	100	–	83.4	68	82.7	84.8	63.9	75.6	72	93.9
C[C@]1(c2nc3c(C(N)=O)cccc3[nH]2)CCCN1 [Veliparib] + Cn1cc(/C=C2\C(=O)Nc3cccnc32)c2ccccc21 [GW441756] (first compound 7 µM, partner dose 2 µM)	81	96.8	95.2	57.5	75.8	67.5	88.5	91.3	66.5	86.2
C=CCn1c(=O)c2cnc(Nc3ccc(N4CCN(C)CC4)cc3)nc2n1-c1cccc(C(C)(C)O)n1 + COc1cc2ncnc(Nc3ccc(Oc4ccccc4)cc3)c2cc1OC [SrcI1] (first compound 0.1 µM, partner dose 10 µM)	28.3	77.4	62.9	41.6	83	59	41.6	59.7	46.7	48.1
Cc1nc(Nc2ncc(C(=O)Nc3c(C)cccc3Cl)s2)cc(N2CCN(CCO)CC2)n1 [dasatanib] + NC(=O)Nc1cc(-c2cccc(F)c2)sc1C(=O)N[C@H]1CCCNC1 [AZD7762] (first compound 0.02 µM, partner dose 0.1 µM)	34	–	52.9	63.5	75.5	48	46.6	38.4	37.3	40.8
